Experimental data: PubChem BioAssay AID686978 (National Center for Advancing Translational Sciences (NCATS), 2013)
The whole screen tested about 420,000 compounds, of which about 64,000 (15%) were called active. The inconclusive results got no clear call from the source; some entries with a clear call stand among them for comparison. The call rests on the fitted dose curve; in most records, active means well fitted inhibition curve with a large enough effect; inconclusive means small, poorly fitted or top-dose-only effect; inactive means flat fitted curve, though single readings scatter. No potency is given beside an inconclusive call; the fits are too rough.

Assay: qHTS for Inhibitors of human tyrosyl-DNA phosphodiesterase 1 (TDP1): qHTS in cells in absence of CPT; further: nearly all actives have a fitted effect of over 55% in size
Conditions: DT40 Tdp1-/- hTDP1 cells, no CPT, ATP luminescence, 48 h; activity change, negative = growth inhibition: at 46.2 µM (top of the series)
Outline: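 A cellular qHTS used chicken DT40 cells lacking endogenous Tdp1 but carrying stably transfected human TDP1. Compounds were applied without camptothecin, and cell growth kinetics were judged by ATP-dependent luminescence after ≥48 hr.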
On the % scale 0 is the no-effect control and ±100 the full control effect; potency means the concentration at half of the fitted maximal effect; tags describe the fitted curve by direction and shape.

Structure (SMILES) | Potency | activity change, negative = growth inhibition
COc1ccc(Br)cc1CNC(=O)Cc1cccs1 | inactive | –
COc1ccccc1NC(=O)c1ccc(NC(=O)CN2CCN(C(=O)c3ccco3)CC2)cc1 | inconclusive [inhibitor, single point] | –
O=C(c1ccc2c(=O)n(Cc3ccc(Cl)cc3)c(=S)[nH]c2c1)N1CCCC1 | – | inconclusive: -32.2% [inhibitor]
CC(=O)NC(c1cccc(F)c1)c1nc(-c2cnc3ccccc3c2)cs1 (centres undefined) | inconclusive [inhibitor, single point] | –
CC(C)[C@@H](N)C(=O)N/N=C/c1ccc2ncccc2c1 | inconclusive [inhibitor, single point] | –
CCn1c(O)c(N=NC(=O)CNC(=O)/C=C/c2ccccc2)c2ccccc21 | inconclusive [inhibitor, partial curve] | –
COc1ccccc1Cn1c(C2CC(=O)N(c3ccccc3OC)C2)nc2ccccc21 (centres undefined) | inconclusive [inhibitor, single point] | –
O=C(CSC1=Nc2ccccc2C2=NC(Cc3ccccc3)C(=O)N12)Nc1cccc(Cl)c1 (centres undefined) | active: 25.9 µM | –
COc1ccccc1C(=O)N1CC(=O)Nc2ccc(F)cc2C1c1ccccc1 (centres undefined) | inconclusive [inhibitor, full curve, poor fit] | –
CCOC(=O)c1c(-c2ccccc2)oc2ccc(NS(=O)(=O)c3ccc(C)cc3)cc12 | active: 2.91 µM | –
Cc1ccccc1CSCC(=O)c1c(N)n(C)c(=O)n(C)c1=O | inconclusive [inhibitor, single point] | –
Clc1ccc(C(c2nnnn2CCc2ccccc2)N2CCSCC2)cc1 (centres undefined) | inconclusive [inhibitor, single point] | –
CN(C)S(=O)(=O)c1cccc(NC(=O)COc2ccccc2C(=O)Nc2ccccc2)c1 | active: 9.2 µM | –
CC(=O)NC(c1ccccc1)c1nc(-c2ccccc2C)cs1 (centres undefined) | inactive | –
CN(N)c1nc2ccccc2nc1C(F)(F)F | inconclusive [inhibitor, single point] | –
CCc1ccc2occ(CC(=O)Nc3c(C(=O)c4ccccc4)oc4ccccc34)c2c1 | inconclusive [inhibitor, single point] | –
CC(C)(C)c1ccc(NC(=S)NCc2cccs2)cc1 | inconclusive [inhibitor, partial curve] | –
CCOc1ccccc1N(C(=O)Nc1ccc(Cl)cc1)C1=NC(C)CS1 (centres undefined) | – | inconclusive: -31.3% [inhibitor]
O=C(Nc1ccc(Cl)c(Cl)c1)N1CCSCC1 | inconclusive [inhibitor, single point] | –
CCC(=O)c1ccc(N2CCN(S(=O)(=O)c3ccccc3)CC2)c(F)c1 | – | inconclusive: -30.9% [inhibitor]
CCOC(=O)c1c(C)[nH]c(=S)c(C#N)c1-c1ccccc1 | inactive | –
Cc1noc(C)c1COc1ccccc1C(=O)NC(C)CCc1ccccc1 (centres undefined) | inconclusive [inhibitor, single point] | –
N/C(=N\OC(=O)c1ccc(Cl)cc1Cl)c1ccc(Cl)cc1 | inconclusive [inhibitor, single point] | –

Structure (SMILES) | Potency | activity change, negative = growth inhibition
Cc1ccnc(NC(c2cccc(O)c2)c2ccc3ccc(C)nc3c2O)c1 (centres undefined) | inconclusive [inhibitor, single point] | –
CN1C(=O)C2(C(C#N)=C(N)Oc3c2oc(CO)cc3=O)c2ccccc21 (centres undefined) | inactive | –
CC(O)C(=O)N/N=C/c1cccc2ccccc12 (centres undefined) | – | inconclusive: -11.8% [inhibitor]
COC(=O)c1cccc(NC(=S)NCc2ccc(F)cc2)c1 | inconclusive [inhibitor, single point] | –
Cc1cc(C(=O)Cn2nc(C(=O)O)c3ccccc3c2=O)c(C)n1-c1ccc(OC(F)F)cc1 | inconclusive [inhibitor, single point] | –
CC1CCCCC1NC(=O)CN(C)S(=O)(=O)c1ccc2c(c1)CCC(=O)N2 (centres undefined) | inactive | –
CCNS(=O)(=O)c1ccc(CCC(=O)Nc2ccc(C(=O)OC)cc2)cc1 | inconclusive [inhibitor, single point] | –
CCOc1cc(C2CC(=O)Nc3cc(C)c(C)cc32)ccc1O (centres undefined) | inconclusive [inhibitor, single point] | –
COc1cccc(NC(=O)CSc2nnc(-c3ccc(C)cc3)o2)c1 | inactive | –
CC(COS(N)(=O)=O)Cc1ccc(C(F)(F)F)cc1 (centres undefined) | inconclusive [inhibitor, partial curve] | –
COc1ccccc1CNC(=O)[C@H](C)N1C(=O)N2CCc3c([nH]c4ccccc34)[C@@]2(C)C1=O | active: 18.4 µM | –
CN(C)Cc1ccccc1-c1nccc(Nc2ccc(F)cc2)n1 | inconclusive [inhibitor, single point] | –
O=C(Cn1c(=O)n(-c2ccccc2)c(=O)c2c3c(sc21)CCC3)c1ccc(Br)cc1 | inconclusive [inhibitor, single point] | –
CSc1ccccc1OC1CCN(Cc2ccccc2)CC1 | inconclusive [inhibitor, single point] | –
CCOC(=O)c1c(C)oc2ccc(N(C(=O)c3ccncc3)S(=O)(=O)c3ccc(F)cc3C)cc12 | active: 23.1 µM | –
Cn1cccc1CC(=O)NNC(=S)NC(=O)c1ccc(F)cc1 | inconclusive [inhibitor, single point] | –
Cc1ccccc1N(C(=O)CCCC(=O)Nc1ccccn1)C(C(=O)NC1CCCC1)c1ccc(O)cc1 (centres undefined) | inconclusive [inhibitor, single point] | –
Nc1ccccc1SCc1c(Cl)cccc1Cl | inactive | –
COc1ccc(CCNC(=O)CN2C(=O)c3ccccc3S2(=O)=O)cc1 | inactive | –
COc1ccccc1N1CCN(S(=O)(=O)c2cc(C(=O)Nc3ccc(Oc4ccccc4)cc3)ccc2F)CC1 | active: 5.8 µM | –
COc1ccc(NC(=O)c2ccccc2N(Cc2ccccc2)S(C)(=O)=O)cc1OC | inconclusive [inhibitor, single point] | –
Cc1cccc(OCC(=O)N2CCC3(CC2)CC(=O)c2ccccc2O3)c1 | inconclusive [inhibitor, partial curve, poor fit] | –
CC(C)CCNC(=O)CCCn1c(=O)c2cccn2c2ccccc21 | inconclusive [inhibitor, partial curve] | –

Structure (SMILES) | Potency | activity change, negative = growth inhibition
Cn1c(Cn2c(=O)sc3ccccc32)nnc1SCC(=O)N1CCCc2ccccc21 | – | inconclusive: -31% [inhibitor]
Cc1cccc(CS(=O)(=O)Cc2ccc(C(=O)NCc3ccc(F)cc3)o2)c1 | inconclusive [inhibitor, single point] | –
COCC(C)n1c(C)cc(C(=O)COc2ccc(N(C)S(=O)(=O)c3ccc(NC(C)=O)cc3)cc2)c1C (centres undefined) | inconclusive [inhibitor, partial curve, poor fit] | –
O=C(CN(Cc1ccccc1)S(=O)(=O)c1cccc(C(F)(F)F)c1)NC1CCCCC1 | inconclusive [inhibitor, single point] | –
NC(=S)NN=C1CCCCC12CCCC2 | inconclusive [inhibitor, full curve] | –
Cc1ccc(S(=O)(=O)N(CC(=O)N2CCc3ccccc3C2)c2ccc(Cl)c(Cl)c2)cc1 | inconclusive [inhibitor, single point] | –
Cc1cccc(NC(=O)CSc2nnc(-c3cc(C)[nH]n3)n2N)c1 | inactive | –
CC1(C)CC(NC(=O)c2cc(S(=O)(=O)N3CCOCC3)ccc2Cl)CC(C)(C)N1 | inactive | –
COc1ccc(C2(c3ccc(OC)cc3)NC(=O)N(CC(=O)NC3(C#N)CCCCC3)C2=O)cc1 | inactive | –
CCC(C)(C)C1CCC2(CC1)NC(=O)N(CC(=O)N1CCN(S(=O)(=O)c3cc(C)ccc3C)CC1)C2=O (centres undefined) | inconclusive [inhibitor, single point] | –
COc1cccc(NC(=O)CSc2ccc3nnc(-c4cccnc4)n3n2)c1 | inactive | –
COc1ccc(N2CCN(C(=O)CSc3ccccc3N)CC2)cc1 | – | inconclusive: -32.9% [inhibitor]
CC1=C/C(=C/N(C)C)C(=O)O1 | inconclusive [inhibitor, single point] | –
O=C1CNc2cc(Cl)ccc2N1 | inconclusive [inhibitor, single point] | –
Cc1ccc(C)c(NS(=O)(=O)c2ccc(OCC(=O)NCC3CCCO3)cc2)c1 (centres undefined) | inconclusive [inhibitor, partial curve] | –
O=C(NN=Cc1cccc2ccccc12)C(=O)NN=Cc1cccc2ccccc12 | active: 14.6 µM | –
Clc1ccc2[nH]c3c(N4CCC5(CC4)OCCO5)ncnc3c2c1 | active: 18.4 µM | –
CC12CCC(=O)N1C(C(=O)Nc1nc3ccccc3s1)CS2 (centres undefined) | inactive | –
C=CCNC(=O)CC(=O)N/N=C/c1cccs1 | inactive | –
O=C(CCN1CCOCC1)N/N=C/c1cc([N+](=O)[O-])ccc1OC(F)F | inconclusive [inhibitor, single point] | –
CCN(C(=O)c1cc2c(=O)oc3ccccc3c2s1)c1ccccc1F | inconclusive [inhibitor, single point] | –
CCc1cc(=O)oc2cc(C)cc(OCC(=O)NCCc3c[nH]c4ccccc34)c12 | inconclusive [inhibitor, single point] | –
CNc1snc(C)c1C(=O)OCC(=O)N(C)c1ccccc1 | inconclusive [inhibitor, single point] | –
